Experiment [1] has as its target GST-RNF20 (human) (UniProt Q5VTR2). Nature of the experiment: pull-down; GST-tagged Bre1 (WT, truncated or mutant) or GST-RNF20 on glutathione agarose beads, incubated with 6xHis-tagged Rad51, hRad51 or FBH1 at 4 °C for 4 h; wash 20 mM Tris-HCl pH 7.4, 200 mM NaCl; Western blot or Coomassie; both purified. On the technique in general: In western blotting, separated proteins are transferred to a membrane and probed.

Sequences of proteins named here, by UniProt entry; tags and fusion partners are left off.
UniProt Q5VTR2: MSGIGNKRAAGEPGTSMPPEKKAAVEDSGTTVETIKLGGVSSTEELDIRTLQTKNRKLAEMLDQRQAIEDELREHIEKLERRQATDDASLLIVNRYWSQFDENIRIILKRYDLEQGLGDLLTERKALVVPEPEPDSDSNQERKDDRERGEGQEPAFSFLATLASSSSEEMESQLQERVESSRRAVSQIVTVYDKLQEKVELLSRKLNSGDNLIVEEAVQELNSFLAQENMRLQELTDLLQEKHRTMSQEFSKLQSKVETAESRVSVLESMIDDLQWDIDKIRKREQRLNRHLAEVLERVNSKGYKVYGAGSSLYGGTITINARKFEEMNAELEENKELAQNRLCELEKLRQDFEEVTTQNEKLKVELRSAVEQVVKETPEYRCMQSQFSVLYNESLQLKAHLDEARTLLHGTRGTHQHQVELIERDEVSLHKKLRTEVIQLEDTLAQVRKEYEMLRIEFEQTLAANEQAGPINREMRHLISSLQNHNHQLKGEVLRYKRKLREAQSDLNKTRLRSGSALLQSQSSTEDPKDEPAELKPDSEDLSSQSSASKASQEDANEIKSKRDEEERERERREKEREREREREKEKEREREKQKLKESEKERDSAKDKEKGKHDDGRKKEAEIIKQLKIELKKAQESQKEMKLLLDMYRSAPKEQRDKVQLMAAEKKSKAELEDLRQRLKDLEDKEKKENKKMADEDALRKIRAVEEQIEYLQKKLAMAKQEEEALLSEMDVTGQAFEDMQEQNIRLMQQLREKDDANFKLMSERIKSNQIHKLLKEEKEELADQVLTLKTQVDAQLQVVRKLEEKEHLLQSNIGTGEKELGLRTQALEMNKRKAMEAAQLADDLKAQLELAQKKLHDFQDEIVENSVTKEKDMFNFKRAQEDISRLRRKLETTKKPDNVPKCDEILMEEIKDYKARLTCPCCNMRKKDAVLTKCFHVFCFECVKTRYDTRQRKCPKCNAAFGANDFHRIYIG
UniProt Q06609: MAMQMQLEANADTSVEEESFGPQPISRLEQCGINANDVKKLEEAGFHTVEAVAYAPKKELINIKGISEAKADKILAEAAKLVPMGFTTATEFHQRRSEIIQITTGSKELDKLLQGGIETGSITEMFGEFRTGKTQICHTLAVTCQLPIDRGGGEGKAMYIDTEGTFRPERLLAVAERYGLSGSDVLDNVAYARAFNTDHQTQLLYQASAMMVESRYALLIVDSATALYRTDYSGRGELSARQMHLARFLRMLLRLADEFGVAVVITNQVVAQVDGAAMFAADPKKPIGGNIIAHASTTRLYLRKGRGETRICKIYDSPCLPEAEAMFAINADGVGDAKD
UniProt Q8NFZ0: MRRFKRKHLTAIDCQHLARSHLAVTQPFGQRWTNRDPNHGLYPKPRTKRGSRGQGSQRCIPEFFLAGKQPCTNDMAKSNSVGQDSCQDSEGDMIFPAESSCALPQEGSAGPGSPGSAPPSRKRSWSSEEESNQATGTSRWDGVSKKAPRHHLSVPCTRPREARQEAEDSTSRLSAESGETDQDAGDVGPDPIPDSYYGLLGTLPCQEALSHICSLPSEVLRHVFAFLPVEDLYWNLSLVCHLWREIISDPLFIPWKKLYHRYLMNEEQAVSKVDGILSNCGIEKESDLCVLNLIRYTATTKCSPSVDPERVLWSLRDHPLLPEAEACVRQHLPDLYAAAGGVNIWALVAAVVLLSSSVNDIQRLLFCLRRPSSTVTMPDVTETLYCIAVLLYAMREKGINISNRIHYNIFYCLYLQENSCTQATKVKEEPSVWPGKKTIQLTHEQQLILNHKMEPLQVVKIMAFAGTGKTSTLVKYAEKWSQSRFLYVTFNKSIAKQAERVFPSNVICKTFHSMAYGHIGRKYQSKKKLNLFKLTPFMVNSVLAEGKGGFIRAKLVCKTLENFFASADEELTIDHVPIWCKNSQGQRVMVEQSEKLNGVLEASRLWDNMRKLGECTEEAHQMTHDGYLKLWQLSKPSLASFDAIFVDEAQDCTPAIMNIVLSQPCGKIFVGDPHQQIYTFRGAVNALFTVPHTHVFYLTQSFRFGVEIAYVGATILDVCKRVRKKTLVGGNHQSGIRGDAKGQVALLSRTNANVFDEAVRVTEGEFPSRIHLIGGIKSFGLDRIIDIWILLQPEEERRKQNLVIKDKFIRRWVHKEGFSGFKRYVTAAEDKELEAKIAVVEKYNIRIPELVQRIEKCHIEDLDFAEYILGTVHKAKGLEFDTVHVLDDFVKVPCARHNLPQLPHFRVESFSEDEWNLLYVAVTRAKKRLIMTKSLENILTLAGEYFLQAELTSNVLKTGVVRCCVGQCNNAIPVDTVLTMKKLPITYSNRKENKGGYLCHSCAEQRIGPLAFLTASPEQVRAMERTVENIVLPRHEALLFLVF
UniProt P25454: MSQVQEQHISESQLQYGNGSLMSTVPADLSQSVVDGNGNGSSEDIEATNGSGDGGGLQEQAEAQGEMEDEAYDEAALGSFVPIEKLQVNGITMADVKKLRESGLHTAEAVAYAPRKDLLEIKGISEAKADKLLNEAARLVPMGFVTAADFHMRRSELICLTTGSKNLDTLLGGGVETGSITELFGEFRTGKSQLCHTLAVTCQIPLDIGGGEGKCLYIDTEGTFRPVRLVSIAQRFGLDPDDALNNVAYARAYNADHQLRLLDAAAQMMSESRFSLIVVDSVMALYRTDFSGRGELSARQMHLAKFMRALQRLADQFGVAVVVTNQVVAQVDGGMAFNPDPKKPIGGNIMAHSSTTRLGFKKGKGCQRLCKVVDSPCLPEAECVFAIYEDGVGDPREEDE

Experiment [2] deals with T1, GST-Bre1-EK2A (yeast (Saccharomyces cerevisiae)) (UniProt Q07457).
T1 sequence: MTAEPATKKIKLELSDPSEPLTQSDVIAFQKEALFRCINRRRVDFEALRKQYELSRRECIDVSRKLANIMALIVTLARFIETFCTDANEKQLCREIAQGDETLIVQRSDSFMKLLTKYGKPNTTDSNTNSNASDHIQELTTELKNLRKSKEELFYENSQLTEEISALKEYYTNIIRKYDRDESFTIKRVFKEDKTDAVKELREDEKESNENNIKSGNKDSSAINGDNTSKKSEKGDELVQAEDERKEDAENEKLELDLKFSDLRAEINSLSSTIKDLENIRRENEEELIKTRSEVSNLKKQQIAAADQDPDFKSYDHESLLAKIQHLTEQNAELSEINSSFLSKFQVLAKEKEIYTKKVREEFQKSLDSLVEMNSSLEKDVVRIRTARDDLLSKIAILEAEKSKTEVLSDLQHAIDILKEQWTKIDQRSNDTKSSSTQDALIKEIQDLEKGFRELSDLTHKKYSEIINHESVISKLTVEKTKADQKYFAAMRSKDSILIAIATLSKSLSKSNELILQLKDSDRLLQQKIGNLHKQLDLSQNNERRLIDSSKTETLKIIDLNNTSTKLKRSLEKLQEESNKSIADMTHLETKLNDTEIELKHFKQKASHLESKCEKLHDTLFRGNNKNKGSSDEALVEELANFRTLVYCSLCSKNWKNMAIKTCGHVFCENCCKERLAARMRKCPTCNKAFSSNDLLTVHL
The description is as above.

The target of experiment [3] is T2, GST-tagged truncated Bre1 1-496 aa (yeast (Saccharomyces cerevisiae)) (UniProt Q07457).
T2 sequence: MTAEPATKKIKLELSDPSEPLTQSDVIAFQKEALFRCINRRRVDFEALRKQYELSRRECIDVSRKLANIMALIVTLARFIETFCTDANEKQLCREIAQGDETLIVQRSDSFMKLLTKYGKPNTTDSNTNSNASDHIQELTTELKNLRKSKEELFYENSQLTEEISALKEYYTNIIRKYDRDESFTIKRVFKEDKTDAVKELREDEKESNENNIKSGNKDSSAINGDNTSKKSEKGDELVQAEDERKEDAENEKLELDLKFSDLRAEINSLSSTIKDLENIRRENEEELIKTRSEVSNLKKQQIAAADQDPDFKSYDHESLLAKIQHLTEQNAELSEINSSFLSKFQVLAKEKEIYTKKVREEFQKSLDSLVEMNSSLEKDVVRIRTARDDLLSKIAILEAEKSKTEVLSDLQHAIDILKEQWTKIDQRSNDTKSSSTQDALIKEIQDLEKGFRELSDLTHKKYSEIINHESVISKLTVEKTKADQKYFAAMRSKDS
The description is as above.

Experiment [4] addresses FLAG-RNF20 (human) (UniProt Q5VTR2). The experiment in a line: co-IP; HEK293T cells co-transfected with FLAG-tagged and HA-tagged constructs; NETN buffer (100 mM NaCl, 0.5% Nonidet P-40); anti-FLAG antibody on protein G-sepharose, 16 h at 4 °C.
Experiment [5] addresses T3, Bre1-3xFLAG (yeast (Saccharomyces cerevisiae)) (UniProt Q07457).
T3 sequence: T1 sequence with A500E, A502K
The experiment in a line: co-IP; yeast cell lysates, anti-HA or anti-FLAG antibody and protein G-agarose, 150 mM NaCl, 0.4% Nonidet P-40; cells untreated or treated with phleomycin or MMS; for Srs2-Bre1 also with benzonase treatment.

Experiment [6] concerns the target T4, bre1-EK2A-3xFLAG (yeast (Saccharomyces cerevisiae)) (UniProt Q07457).
T4 sequence: T1 sequence
Described as above.

Experiment [7] addresses endogenous RNF20 (human (endogenous in HEK293T or Hela cells)) (UniProt Q5VTR2). Nature of the experiment: co-IP; immunoprecipitation of endogenous proteins from human cells.
Experiment [8] deals with endogenous hRad51 (human (endogenous in HEK293T or Hela cells)) (UniProt Q06609). The description is as above.

Residue numbers refer to the chain shown, from its start. No constants are given. Whether binding was seen depends on the method and setting. For some assays here: In cells and extracts the contact can be indirect. Some results given as binding are weak or reduced against the parent protein; the word gives no strength. For some assays here: Tags and fused reporters may be left off the sequences shown.

The text below walks through data of article PMC10213050.

Regarding “6xHis-FBH1 (from UniProt Q8NFZ0 1-1043) (enzyme)”, the binding result in experiment [1] is recorded as “binds”. As to 6xHis-Rad51 (from UniProt P25454 1-400), the binding entry in experiment [2] and in experiment [3] was “no binding” each time. Take “HA-FBH1 (from UniProt Q8NFZ0 1-1043) (enzyme)”: the binding result in experiment [4] was “binds”. Take Rad51-3xHA (from UniProt P25454 1-400): the figures for the binding entry in experiment [5] and in experiment [6] were “binds” and “no binding”, respectively. For the substance “endogenous FBH1 (from UniProt Q8NFZ0 1-1043) (enzyme)”, the binding result in experiment [7] is listed as “binds”. Regarding “endogenous RNF20 (from UniProt Q5VTR2 1-975) (enzyme)”, in experiment [8], the binding entry is “binds”.
